# Data as given in the supplement of paper PMC9446081.
# The campaign covered roughly 39,000 compounds. About 220 (0.56%) showed activity. The list shows a part of the results.
# Tested on: Escherichia coli K-12 BW25113
# Test: relative growth (OD600 normalised to plate interquartile mean) (fraction); higher = less growth inhibition, active = 0.2 or less
# Details: 50 µM; LB; incubation time: overnight (16-24 h)
# 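Further: static incubation at 37 °C against the wild-type strain, values averaged over two biological replicates.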
row,SMILES,relative growth
1,COc1ccc(OC)c(CCNC(=O)CN)c1,inactive: 1.04
2,C[C@@H]1CN([C@@H](C)CO)C(=O)Cc2cc(NS(C)(=O)=O)ccc2O[C@H]1CN(C)S(C)(=O)=O,inactive: 0.973
3,C[C@H](CO)N1C[C@H](C)[C@@H](CN(C)Cc2ccc(C(F)(F)F)cc2)OCCCC[C@H](C)Oc2ccc(NC(=O)C3CCCCC3)cc2C1=O,inactive: 0.944
4,COc1ccc(NC(=O)Nc2ccc3c(c2)C(=O)N([C@H](C)CO)C[C@@H](C)[C@@H](CN(C)C(=O)Nc2ccc(C(F)(F)F)cc2)O3)cc1,inactive: 0.948
5,CO[C@H]1C[C@@H](C[C@@H](C)[C@H]2CC(=O)[C@@H](C)/C=C(\C)[C@@H](O)[C@@H](OC)C(=O)[C@@H](C)C[C@@H](C)/C=C/C=C/C=C(\C)[C@H](OC)C[C@H]3CC[C@@H](C)[C@@](O)(O3)C(=O)C(=O)N3CCCC[C@@H]3C(=O)O2)CC[C@@H]1O,inactive: 0.97
6,C[C@H](CO)N1C[C@H](C)[C@@H](CN(C)C(=O)Cc2cccnc2)Oc2cc(C#CC3(O)CCCC3)ccc2S1(=O)=O,inactive: 1
7,CCCOc1ccccc1-c1nc2[nH]nnc2c(=O)[nH]1,inactive: 1.08
8,C[C@H](CO)N1C[C@H](C)[C@H](CN(C)C(=O)c2ccncc2)Oc2cc(-c3cccc(C#N)c3)ccc2S1(=O)=O,inactive: 1
9,C=CC[C@@H](CC(=O)N(CCO)Cc1ccccc1)C(=O)N[C@H](COC(=O)[C@@H](CC=C)CC(=O)OC(C)(C)C)Cc1c[nH]c2ccccc12,inactive: 1.08
10,C[C@@H]1CN([C@@H](C)CO)C(=O)c2cc(NC(=O)Nc3ccccc3)ccc2O[C@@H](C)CCCCO[C@H]1CN(C)C(=O)Nc1ccccc1,inactive: 1.06
11,C[C@@H]1CCCCO[C@@H](CN(C)C(=O)Cc2ccccc2)[C@H](C)CN([C@@H](C)CO)C(=O)c2cc(NC(=O)Nc3ccc4c(c3)OCO4)ccc2O1,inactive: 1.01
12,C[C@H]1CN([C@@H](C)CO)C(=O)CCCn2cc(nn2)CO[C@H]1CN(C)C(=O)Nc1ccc(C(C)(C)C)cc1,inactive: 1
13,C[C@H]1CN([C@@H](C)CO)C(=O)Cc2cc(NC(=O)C3CC3)ccc2O[C@H]1CN(C)Cc1ccc(Oc2ccccc2)cc1,inactive: 0.973
14,O=C(O)c1cccc(-c2ccco2)c1,inactive: 1.01
15,C[C@H](CO)N1C[C@H](C)[C@@H](CN(C)C(=O)Nc2cccc(C(F)(F)F)c2)OCc2cnnn2CCCC1=O,inactive: 0.885
16,C[C@@H]1CCCCO[C@@H](CN(C)C(=O)Nc2ccc(C(F)(F)F)cc2)[C@H](C)CN([C@@H](C)CO)C(=O)c2cc(NC(=O)NC3CCCCC3)ccc2O1,inactive: 1.02
